Source: PubChem BioAssay (NCI)
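Values below derive from 48-hour exposures of cells grown in 96-well plates, with endpoints linearly interpolated between the two concentrations bracketing the appropriate inhibition level. GI50 marks 50% less growth. At the TGI there is no net growth.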

Test system: NCI-H322M lung
Assay: NCI tumour cell line growth inhibition, 48 h

SMILES | GI50 [µM] | TGI [µM]
COc1cc(-c2nc3cc(Cl)c(Cl)cc3[nH]2)ccc1OCc1nnc(-c2ccc(Br)cc2)o1 | 31.6 | > 100
O=c1cc(-c2ccccc2)oc2cc(OCCCCNCc3ccccc3)cc(O)c12 | 14.1 | 28.1
CC1=C(C)C(=O)C(NCCN2CCOCC2)=C(Br)C1=O | 14.8 | 28.1
CN1CCCN(Cc2ccc(C(=O)Nc3cccc(Nc4ccc5cc(O)ccc5n4)c3)cc2C(F)(F)F)CC1 | 16.2 | 29.8
